Reference: the supplement of paper PMC11417369
Some of the results follow.

The sequences below were run on PfSIP2 AP2 domain 1 (GST-tagged) (assay: gcPBM binding intensity (ln(normalized median fluorescence intensity)); higher = stronger DNA binding).
Procedure, shortened: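 In this array assay, P. falciparum DNA-binding domains with a GST tag, expressed in E. coli, were applied for 1 h to primer-extended double-stranded 36-bp intergenic genomic probes and negative controls on an Agilent 4 × 180k array. Bound protein was visualised with Alexa488 anti-GST antibody at 488 nm. Binding intensity is the highest Masliner-normalised natural-log median intensity across replicate spots of either probe orientation.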
With “AAAACGCTACATAATTGTACATGTAGAAATAAAAGC [XGTACX_site2895]” the “gcPBM binding intensity (ln)” value was 7.4. With “TACTGCCTTCCATACCCACACACTTCCCATATATTT [CACACA_site2705]” the “gcPBM binding intensity (ln)” value was 7.58. In the case of “ATTTAAAAAAAAAAAACACACATGTGAATAGAAAAG [CACACA_site3323]”, the “gcPBM binding intensity (ln)” value is reported as 7.06. In the case of “ATATTTAAATAATATTCACACACAAAATTATATTTT [CACACA_site7955]”, the “gcPBM binding intensity (ln)” value is reported as 6.94. In the case of “CATATAAAAATATATGCACACAAATAAAAAATTATA [CACACA_site9210]”, the “gcPBM binding intensity (ln)” value is reported as 7.29. For “ATTTCTCAATCGTAATGTACAAAAAAAAGGGAAAAG [XGTACX_site2781]”, the “gcPBM binding intensity (ln)” value was 7.17. For “ACAAACAAAGAAAGAACACACATACACAATATACCT [CACACA_site5566]”, the “gcPBM binding intensity (ln)” value was 6.95. With “ATAAATATAATAATCATACACACCAAAGAGAATATT [CACACA_site1888]” the “gcPBM binding intensity (ln)” value was 6.98. In the case of “AAAGTTATTATGCAATAATTATGATAATTAATATAT [TGCATGCA_negctrl_site316]”, the “gcPBM binding intensity (ln)” value is reported as 7.04. For “ATGACTTACATATATAGTACTTTGTTTTGGAGTTGC [XGTACX_site94]”, the “gcPBM binding intensity (ln)” value was 7.01. In the case of “TATGAGGAAACGTGGTGTACTTTTTTTTAATAAAAA [XGTACX_site1351]”, the “gcPBM binding intensity (ln)” value is reported as 7.16. For “AAAAAAAAAAAGTTTACACACATTAATTTTACATAT [CACACA_site834]”, the “gcPBM binding intensity (ln)” value was 6.91. “AAAAAAATACCATTCACACATATTCTTTTATTATTT [CACACA_site5113]” was tested, and the “gcPBM binding intensity (ln)” value was 6.95. “ATTAAAAAGACAAAAAAAAAATTTTTTTTTTTTTTT [CACACA_negctrl_site1027]” was tested, and the “gcPBM binding intensity (ln)” value was 6.99. With “TAATAATACCCTTGCTGTACCAAATAAAGTTGAATA [XGTACX_site6922]” the “gcPBM binding intensity (ln)” value was 7.01. “AAATCAACGATCTATACATGCATATAATATATACAT [TGCATGCA_site25]” was tested, and the “gcPBM binding intensity (ln)” value was 6.78. “GTAGCAATAAACATATGTACATATATATATTTTTTC [XGTACX_site5814]” was tested, and the “gcPBM binding intensity (ln)” value was 7.13. “TTTCATAACAAAAAAGTGCAAAATAGCACGAACATT [GTGCAC_site9703]” was tested, and the “gcPBM binding intensity (ln)” value was 8.82. For “AGAAAAAGGAGAAAAAGTACAAAACGGAGTAGTATT [XGTACX_site3858]”, the “gcPBM binding intensity (ln)” value was 6.87. In the case of “AAAAATTATATACATCATAGAATTAACATTTTAAAT [GTGCAC_negctrl_site369]”, the “gcPBM binding intensity (ln)” value is reported as 6.72. With “AATTATTTACCCTATACACACAAAACAGACTAAAAA [CACACA_site6688]” the “gcPBM binding intensity (ln)” value was 7.21. For “ATATTAATTCGTTTTGTACACACATAATGAATAATT [CACACA_site8701]”, the “gcPBM binding intensity (ln)” value was 6.94. With “ATAAAAATCATGTTGGTGCGAAATTTTATTATCAGA [GTGCAC_site9735]” the “gcPBM binding intensity (ln)” value was 8.73. “TTATGTATAAACACACGTACACACACTAAGTATATC [XGTACX_site3254]” was tested, and the “gcPBM binding intensity (ln)” value was 7.13. In the case of “AAGGTATGATTAATCACACACATAAATATATATACA [CACACA_site2658]”, the “gcPBM binding intensity (ln)” value is reported as 6.86. “ACACATACACATTAGGTGCATATATTTCAATATTAC [GTGCAC_site9423]” was tested, and the “gcPBM binding intensity (ln)” value was 10.3. “TTTAAAAAGATATATACACACATATAAATAAATATA [CACACA_site6436]” was tested, and the “gcPBM binding intensity (ln)” value was 6.92. “CCACGTATAATATGTACACACACATATATACAAAAA [CACACA_site8208]” was tested, and the “gcPBM binding intensity (ln)” value was 7.43. For “AGCCTCGGGGTCATATATATATATATATATATATAT [CACACA_negctrl_site512]”, the “gcPBM binding intensity (ln)” value was 9.56. “ATTATATTTTTAAGTACACACATATATATATATATA [CACACA_site5925]” was tested, and the “gcPBM binding intensity (ln)” value was 9.47. With “ATAAAAGGAAGAAAATGTACATATAATTATATGCAT [XGTACX_site8421]” the “gcPBM binding intensity (ln)” value was 6.85. “TTTTTCTATAAAAAAAAAAAAAAAAAATATATATAT [TGCATGCA_negctrl_site535]” was tested, and the “gcPBM binding intensity (ln)” value was 8.41. In the case of “TTGTATATTTTATGTACACACAATAAGTTAATATAA [CACACA_site4655]”, the “gcPBM binding intensity (ln)” value is reported as 7.29. “AAAATAATGTATATATGTACATATAAATATATATAT [XGTACX_site8081]” was tested, and the “gcPBM binding intensity (ln)” value was 8.42. In the case of “TATTATTGCATATTTACACACGTACTAATTTAAACA [CACACA_site970]”, the “gcPBM binding intensity (ln)” value is reported as 7.54. In the case of “TTTTACAAATATAATGGGTGAGCTATCAAAATAAAT [GTGCAC_negctrl_site91]”, the “gcPBM binding intensity (ln)” value is reported as 6.93. In the case of “TGTATACTATTAAATTGTACACATAAGAAATATTAT [XGTACX_site5839]”, the “gcPBM binding intensity (ln)” value is reported as 7.03. In the case of “ATGTTTTTAAAAAATTGTACATAATATTTTTTATAA [XGTACX_site7692]”, the “gcPBM binding intensity (ln)” value is reported as 7.04. In the case of “TATATATATATATATATAATACGAATTTGTAGTACA [TGCATGCA_negctrl_site224]”, the “gcPBM binding intensity (ln)” value is reported as 9.65. In the case of “TTATTTTAATAACCTACACACATTTTGTATATTTTA [CACACA_site4000]”, the “gcPBM binding intensity (ln)” value is reported as 6.81. With “AAATGATGGAAAAAATAAATTTTTGTACAAAAATTA [CACACA_negctrl_site814]” the “gcPBM binding intensity (ln)” value was 6.75. “TTATAAATATTCTTGGGTACTTAAGATGATATGTAA [XGTACX_site5496]” was tested, and the “gcPBM binding intensity (ln)” value was 7.15. For “TGATACTTTTTTTGTAGTACTCCTAAAATTATAAAA [XGTACX_site4340]”, the “gcPBM binding intensity (ln)” value was 7.06. With “TTTTTTTTATTTTAATGTACATTTTTTATTTGTTAT [XGTACX_site7189]” the “gcPBM binding intensity (ln)” value was 7.23. For “ATATATATATTATTTCGTACATAATTATTTGCCTTA [XGTACX_site350]”, the “gcPBM binding intensity (ln)” value was 8.79. With “AAAAAAAAAAAAAATTGTACAAAAAAAATAAATAAA [XGTACX_site6816]” the “gcPBM binding intensity (ln)” value was 6.99. “AAAAAAAAAAAAGAAACACACATATTTATATTTATA [CACACA_site6213]” was tested, and the “gcPBM binding intensity (ln)” value was 7.03. In the case of “TTTTTTTTGTGGTGTCGTACATATGTTTGTTTTAAG [XGTACX_site1759]”, the “gcPBM binding intensity (ln)” value is reported as 7.23. With “ATTATGCTACAAGGAGAACACACAATTGCCACTTTT [CACACA_site8673]” the “gcPBM binding intensity (ln)” value was 6.97. In the case of “ACATATATATATATATATATATATATATAATATTTA [CACACA_negctrl_site633]”, the “gcPBM binding intensity (ln)” value is reported as 7.87. For CCACGAGAATATATAGTGCATAATAATTTTTTTTTG, the “gcPBM binding intensity (ln)” value was 8.71. In the case of “GGTGATAATAAGCATACACACACACCCAAAAAAAAA [CACACA_site8137]”, the “gcPBM binding intensity (ln)” value is reported as 7.12. With “AAAAAAAAAAAGAAAGCACACAATACATATGTATAA [CACACA_site1137]” the “gcPBM binding intensity (ln)” value was 6.83. In the case of “ATATATATCAGACACACACACATGTTTTAAAACTAT [CACACA_site77]”, the “gcPBM binding intensity (ln)” value is reported as 7.35. In the case of “TAAATTTTTAAATACACACATACACCCATACAGACA [CACACA_site548]”, the “gcPBM binding intensity (ln)” value is reported as 7.51. With “TATACACTTGTAATAACACACATTATTTTTTTTTTT [CACACA_site1324]” the “gcPBM binding intensity (ln)” value was 6.79.
